# Laboratory results as given in PubChem BioAssay AID624296 (National Center for Advancing Translational Sciences (NCATS), 2012).
# Among all 350,000 compounds or so, about 9,900 (2.8%) were called active. Inconclusive results, whose numbers are uncertain, are shown with a selection of clear calls. Calls follow the shape of the dose curve; as a rule, active = well fitted activation curve with a large enough effect; inconclusive = small, poorly fitted or top-dose-only effect; inactive = no such curve, though single readings can be large or run the other way. No potency is given beside an inconclusive call; the fits are too rough.
# Test: A quantitative high throughput screen for small molecules that induce DNA re-replication in MCF 10a normal breast cells. Also: nearly all actives have a fitted effect of over 50% in size. As to activity, positive = re-replication: % of control where 0% means no effect.
# Settings: MCF 10A DNA re-replication, Hoechst nuclear intensity, 48 h; activity, positive = re-replication: at 46.1 µM (top of the series)
# Potency is read from the fitted curve at half-maximal effect; tags tell the direction and shape of the fitted curve.
SMILES,Potency,"activity, positive = re-replication"
CCN(CC)c1ccc(/C=N/NC(=S)NCc2ccc(OC)cc2)cc1,active: 10.3 µM,–
COCCOC(=O)c1c(C)oc2ccc(OCc3cc(C(=O)OC)oc3C)cc12,"inconclusive [activator, single point]",–
O=C(C[C@H]1C/C=C\C[C@H](Cc2ccc(F)cc2)C(=O)O[C@@H](c2ccccc2)CNC1=O)N[C@H](CO)Cc1ccccc1,"inconclusive [activator, single point]",–
COc1ccc([C@H]2CC(=O)C=C(c3cccc(Cl)c3O)C2)cc1OC,–,inactive: -5.65%
Cc1ccc(S(=O)(=O)Nc2ccc3c(c2)nc(C)n3C)cc1,–,inactive: 1.83%
CCn1cc(-c2cc(C(=O)O)c3ccccc3n2)cn1,–,inactive: -7.33%
CCn1ncc(Br)c1C(=O)Nc1ccc2c(c1)OCCO2,–,inactive: -0.593%
COC(=O)c1ccc(C23CC4(C2)[C@H](CN(CC2CCCCC2)[C@@H]4c2ccccc2)C3c2ccc(C(F)(F)F)cc2)cc1 (some centres undefined),"inconclusive [activator, single point]",–
O=C(O)CCC(=O)OCCN(Cc1ccc(Oc2ccc([N+](=O)[O-])cc2)cc1)C(=O)C(Cl)Cl,–,inactive: 7.64%
CC1=CC(C)(C)Nc2ccc(OC(=O)c3cccnc3)cc21,active: 2.59 µM,–
Cc1ccc(-c2csc(NC(=O)c3ccc([N+](=O)[O-])o3)n2)cc1,active: 4.11 µM,–
Cc1cc(S(=O)(=O)Nc2cccc(O)c2)c(C)s1,"inconclusive [activator, single point]",–
CCn1c(SCC(=O)Nc2ccc(N3CCOCC3)cc2)nnc1C1CC1,–,inactive: -1.95%
C(=N\NC1=Nc2cccc3cccc1c23)/c1ccccc1,"inconclusive [activator, single point]",–
O=C1NC(=Nc2ccccc2)S/C1=C\C=C\c1ccco1,"inconclusive [activator, single point]",–
COc1ccc2c(c1)[nH]c1c(=O)n(/N=C/C3C(C)C=C(C)CC3C)c(=O)[nH]c12 (centres undefined),"inconclusive [activator, full curve]",–
CCN(CC)S(=O)(=O)c1cccc(NC(=O)C2SC(=Nc3ccc(C)cc3C)C(C(=O)NCC3CCCO3)=C2N)c1 (centres undefined),"inconclusive [activator, partial curve, poor fit]",–
COc1cc2c(cc1OC)C1(Nc3c-2c(C)nn3-c2ccccc2)C(=O)Nc2ccccc21 (centres undefined),"inconclusive [activator, single point]",–
COc1cccc(-c2nn3c(-c4cccc(C)c4)nnc3s2)c1,"inconclusive [activator, partial curve, poor fit]",–
